Experimental data: PubChem BioAssay AID1347428 (National Center for Advancing Translational Sciences (NCATS), 2020)
Among all 91,000 compounds or so, about 290 (0.32%) were called active. The inconclusive results got no clear call from the source; some entries with a clear call stand among them for comparison. The call rests on the fitted dose curve; in most records, active means well fitted inhibition curve with a large enough effect; inconclusive means small, poorly fitted or top-dose-only effect; inactive means no such curve, though single readings can be large or run the other way. Potencies beside an inconclusive call are fits to weak or partial responses and may not hold up.

Each molecule was assayed against Single-stranded DNA cytosine deaminase (Homo sapiens) (UniProt Q9GZX7) (assay: Primary qHTS assay for inhibitors of Activation Induced Cytidine Deaminase (AID): AID signal). Conditions: AID deamination FRET fluorescence, UDG-coupled, 4 h; series mostly up to 115 µM.
Further: nearly all actives have a fitted effect of over 25% in size.
Potency means the concentration at half of the fitted maximal effect; tags describe the fitted curve by direction and shape.

UniProt Q9GZX7, sequence (Q9GZX7 whole entry, looked up): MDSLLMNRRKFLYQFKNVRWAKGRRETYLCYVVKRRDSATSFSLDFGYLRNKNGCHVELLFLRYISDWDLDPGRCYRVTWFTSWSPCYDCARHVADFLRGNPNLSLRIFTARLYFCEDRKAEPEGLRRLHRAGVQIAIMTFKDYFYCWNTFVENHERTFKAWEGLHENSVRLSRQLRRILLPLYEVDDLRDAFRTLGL

Row | Compound | Potency
1 | CCc1ccc(C2N3CC4(C)CN2CC(c2ccccc2)(C3)C4=O)cc1 (stereo unspecified) | inconclusive: 28.2 µM [inhibitor, partial curve, poor fit]
2 | CC(C)C(C)NC(=O)COc1ccc(-n2cnnn2)cc1 (stereo unspecified) | inactive
3 | COc1ccc(OC)c(CCNC(=O)c2sc3nc4n(c(=O)c3c2C)CCCC4)c1 | inconclusive: 50.1 µM [inhibitor, partial curve, poor fit]
4 | COc1ccc(NC(=O)c2oc3ccc4c(c3c2C)C(=O)CC(C)(C)O4)cc1OC | inconclusive: 15.8 µM [inhibitor, full curve, poor fit]
5 | COc1cc2c(cc1NC(=O)C(C)Oc1ccc(Cl)cc1Cl)oc1ccccc12 (stereo unspecified) | inconclusive: 39.8 µM [inhibitor, partial curve, poor fit]
6 | CCc1ccc(OCC2c3cc(OC)c(OC)cc3CCN2C(=O)Cc2ccc(OC)c(OC)c2)cc1 (stereo unspecified) | inconclusive: 20 µM [inhibitor, full curve, poor fit]
7 | COc1ccc(-c2noc(CSc3nnc(-c4ccncc4)n3-c3cccc(C)c3)n2)cc1OC | inconclusive: 50.1 µM [inhibitor, partial curve, poor fit]
8 | COc1ccccc1/C=C/C=C(/C#N)C(=O)Nc1ccccc1C(=O)O | inconclusive: 56.2 µM [inhibitor, partial curve, poor fit]
9 | O=C(NCc1ccccc1Cl)C(=O)Nc1cccc2[nH]ccc12 | inactive
10 | O=C(Cn1c(=O)c2sccc2n(CC(=O)Nc2ccc(Cl)cc2Cl)c1=O)NCCc1ccccc1 | inconclusive: 3.55 µM [inhibitor, full curve, poor fit]
11 | COc1cc(OC)c(NC(=O)C(C)n2nc(-c3ccc(C)c(C)c3)ccc2=O)cc1Cl (stereo unspecified) | inconclusive: 39.8 µM [inhibitor, partial curve, poor fit]
12 | Cc1cccc(N2CCN(C(=O)c3c4c(nc5ccccc35)C(=O)N(C3CCCCC3)C4)CC2)c1C | active: 28.2 µM
13 | COC(=O)C1CCN(C(=O)Cn2nc(-c3cccs3)c3ccccc3c2=O)CC1 | inactive
14 | CC1(C)CC(CCN2CCC(Cc3ccccc3)CC2)(c2cccc(C(F)(F)F)c2)CCO1 (stereo unspecified) | inactive
15 | Cc1nnc(N2CCC(C(=O)NCc3cccc(Cl)c3)CC2)c2nn(-c3ccccc3)c(C)c12 | inconclusive: 35.5 µM [inhibitor, full curve]
16 | CCc1ccccc1N1CC(c2nc3ccccc3n2CCC2CCCCC2)CC1=O (stereo unspecified) | inconclusive: 44.7 µM [inhibitor, partial curve, poor fit]
17 | CN(Cc1ccccc1)C(=O)c1ccc2c(c1)N(Cc1ccc(Cl)cc1)C(=O)c1ccccc1S2=O (stereo unspecified) | inconclusive: 39.8 µM [inhibitor, full curve, poor fit]
18 | Cc1ccc(-n2nc(C)c(C(=O)NCCCN3CCN(c4ccccc4F)CC3)c2-n2cccc2)cc1 | inconclusive: 35.5 µM [inhibitor, full curve, poor fit]

Row | Compound | Potency
19 | Cc1cc(Cl)ccc1NS(=O)(=O)c1cc2[nH]c(=O)c(=O)[nH]c2cc1C | inconclusive: 44.7 µM [inhibitor, partial curve, poor fit]
20 | CCCCc1nn2c(C)c(-c3ccc(OCC)cc3)nc2s1 | inconclusive: 79.4 µM [inhibitor, partial curve, poor fit]
21 | CCOC(=O)c1cc(-c2ccc(F)cc2)n(CCC(=O)NCc2ccc(C)cc2)c1C | inconclusive: 100 µM [inhibitor, partial curve, poor fit]
22 | C=CC[N+]1(CC#Cc2ccc(C#CC[N+]3(CC=C)CCOCC3)cc2)CCOCC1 | inactive
23 | CCCS(=O)(=O)c1nc(S(=O)(=O)c2ccc(C)cc2)c(NC(C)c2ccccc2)s1 (stereo unspecified) | inconclusive: 39.8 µM [inhibitor, single point]
24 | O=C(COCc1cc(-c2ccc3c(c2)OCO3)on1)N1CCN(c2cccc(C(F)(F)F)c2)CC1 | inconclusive: 10 µM [inhibitor, partial curve, poor fit]
25 | CN(C)S(=O)(=O)N(CC(=O)NCCSc1ccc(Cl)cc1)c1ccccc1 | inconclusive: 89.1 µM [inhibitor, partial curve, poor fit]
26 | CCC(C(=O)Nc1cc(OC)ccc1OC)n1nc(-c2ccccc2)c2c(c1=O)CCCC2 (stereo unspecified) | active: 28.2 µM
27 | Cn1c2ccccc2c2c(C(=O)N3CCN(c4cccc(C(F)(F)F)c4)CC3)cn(C3CCCCC3)c(=O)c21 | inconclusive: 20 µM [inhibitor, full curve, poor fit]
28 | Cc1cccc(Cn2nnc3c(=O)[nH]c(C4CCCN(C(=O)c5ccc(C(C)(C)C)cc5)C4)nc32)c1 (stereo unspecified) | inconclusive: 56.2 µM [inhibitor, partial curve, poor fit]
29 | Cn1c(COc2ccccc2Cl)nnc1SCCOc1ccc(Br)cc1 | inactive
30 | COc1ccccc1C(=O)NCCc1csc(-c2ccc(C(F)(F)F)cc2)n1 | inconclusive: 44.7 µM [inhibitor, partial curve]
31 | c1cc(CNCC2CCCO2)c2cc[nH]c2c1 (stereo unspecified) | inactive
32 | COc1ccccc1CNS(=O)(=O)c1cc(-c2cc(C)no2)ccc1C | inconclusive: 100 µM [inhibitor, single point]
33 | C/C=C/CC(C)C(O)C1C(=O)NC(CC)C(=O)N(C)CC(=O)N(C)C(CC(C)C)C(=O)NC(C(C)C)C(=O)N(C)C(CC(C)C)C(=O)NC(C)C(=O)NC(C)C(=O)N(C)C(CC(C)C)C(=O)N(C)C(CC(C)C)C(=O)N(C)C(C(C)C)C(=O)N1C (stereo unspecified) | inconclusive: 20 µM [inhibitor, full curve]
34 | COC(=O)c1ccccc1NC(=O)Cn1ncc2c(C)n(Cc3ccc(F)cc3)c(C)c2c1=O | inconclusive: 20 µM [inhibitor, full curve, poor fit]
35 | CCC1=Nc2cc(C(=O)NCCCOC(C)C)ccc2Sc2ccc(C)cc21 | inconclusive: 50.1 µM [inhibitor, partial curve, poor fit]
36 | CCCCN(C)C(=O)c1ccc2c(c1)N(Cc1cccc(Cl)c1)C(=O)c1ccccc1S2=O (stereo unspecified) | inconclusive: 22.4 µM [inhibitor, full curve, poor fit]
